We go through 86 sequences from the supplement of paper PMC4466236.

Over roughly 33,000 sequences, “E-score (dimensionless, -0.5 to 0.5)” has its median near -0.058; the highest 2% begin near 0.35. The list shows a part of the results.

The experiment concerns MvaT. Nature of the experiment: PBM 8-mer E-score (mean of HK and ME arrays) (E-score (dimensionless, -0.5 to 0.5)); higher = stronger relative binding preference; most listed sequences are background and not binding sites. In short, it runs like this:
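Reported values are rank-based E-scores, taken as the mean of two universal arrays and parsed with a custom script. Each 8-mer score falls between -0.5 and 0.5. The arrays, ME and HK, were double-stranded 60-mers with a constant 25-mer primer region and a variable 35-mer region covering all 8-mers. They were probed, by an earlier protocol, with full-length P. aeruginosa MvaT carrying an N-terminal glutathione S-transferase fusion.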
Consider AATCAAGG, for which the “PBM 8-mer E-score” value turned out to be 0.102.

For CCCGGCAC, the “PBM 8-mer E-score” value is -0.177.

For the sequence CCCAAGTA, the “PBM 8-mer E-score” value was 0.0351.

Consider CGCACACG, for which the “PBM 8-mer E-score” value is -0.149.

As for AGAGTCTA, the “PBM 8-mer E-score” value is -0.044.

For the sequence GGGACCTA, the “PBM 8-mer E-score” value is -0.162.

Take ATTTAAAA: the “PBM 8-mer E-score” value was 0.377.

For the sequence GTCAAGAA, the “PBM 8-mer E-score” value was -0.0595.

As for ATTGTGAC, the “PBM 8-mer E-score” value is 0.0506.

For the sequence AAGTGGAA, the “PBM 8-mer E-score” value is 0.0613.

With CAGCCTTA, the “PBM 8-mer E-score” value is -0.0468.

In the case of CCCAAACC, the “PBM 8-mer E-score” value was -0.0902.

Turning to CAATAATA, the “PBM 8-mer E-score” value was 0.418.

Take ACTGGGCC: the “PBM 8-mer E-score” value is -0.187.

Turning to AACGGTGC, the “PBM 8-mer E-score” value was -0.161.

Consider CGAACCTC, for which the “PBM 8-mer E-score” value is -0.291.

AGCTGAAG: the “PBM 8-mer E-score” value is -0.265.

Turning to AGCACCGC, the “PBM 8-mer E-score” value was -0.183.

Regarding AACCATAA, the “PBM 8-mer E-score” value was 0.179.

As for ACCGCACC, the “PBM 8-mer E-score” value was -0.223.

In the case of TCATTCAA, the “PBM 8-mer E-score” value was found to be 0.0307.

As to GGAGTGAA, the “PBM 8-mer E-score” value was -0.186.

Regarding GTGTCGGA, the “PBM 8-mer E-score” value was -0.0252.

As to TAGAAGCA, the “PBM 8-mer E-score” value is 0.0326.

For the sequence AGGTGTTG, the “PBM 8-mer E-score” value worked out at 0.0261.

With CTACGTAC, the “PBM 8-mer E-score” value was -0.0963.

In the case of ACGGAACC, the “PBM 8-mer E-score” value is -0.0623.

Take CTGGTGAA: the “PBM 8-mer E-score” value was 0.0656.

Turning to GACGGTTA, the “PBM 8-mer E-score” value was -0.0638.

For the sequence GAATAATA, the “PBM 8-mer E-score” value was 0.446.

In the case of ACAAGGAT, the “PBM 8-mer E-score” value amounted to 0.0633.

As for ATCGGTCA, the “PBM 8-mer E-score” value was 0.0621.

For CATTATCG, the “PBM 8-mer E-score” value is 0.059.

For the sequence CCATCGCC, the “PBM 8-mer E-score” value was -0.134.

In the case of CACGGTGC, the “PBM 8-mer E-score” value was -0.308.

As for ACGACCCG, the “PBM 8-mer E-score” value was -0.265.

As for ACGGGGGA, the “PBM 8-mer E-score” value is -0.18.

Turning to CCTATACA, the “PBM 8-mer E-score” value came out at 0.116.

For AAAGCGAC, the “PBM 8-mer E-score” value was -0.123.

Regarding ATAAAAAG, the “PBM 8-mer E-score” value amounted to 0.348.

On to GGGAATAA, for which the “PBM 8-mer E-score” value amounted to 0.206.

As for CTCTGCAC, the “PBM 8-mer E-score” value was -0.152.

In the case of AAAGCACT, the “PBM 8-mer E-score” value was found to be 0.00925.

As for AATACGCC, the “PBM 8-mer E-score” value was determined as 0.106.

CCGCTATC: the “PBM 8-mer E-score” value is -0.176.

Turning to CGTCCCCA, the “PBM 8-mer E-score” value was -0.187.

With GGATTTGA, the “PBM 8-mer E-score” value is 0.00759.

For GTCAGTCA, the “PBM 8-mer E-score” value is -0.12.

With CTGTATAC, the “PBM 8-mer E-score” value worked out at 0.215.

As for GTCACCTA, the “PBM 8-mer E-score” value is -0.116.

As for ACTTAATC, the “PBM 8-mer E-score” value came to 0.187.

For the sequence ACGATTGC, the “PBM 8-mer E-score” value is -0.0272.

For GGCATCAC, the “PBM 8-mer E-score” value is -0.0694.

As to GGTATCAC, the “PBM 8-mer E-score” value is -0.0393.

Turning to AGGTTTTC, the “PBM 8-mer E-score” value came out at 0.0141.

Turning to AGCCTAGG, the “PBM 8-mer E-score” value was -0.195.

For the sequence ACCTTAAA, the “PBM 8-mer E-score” value is 0.0626.

On to AATTCGGT, for which the “PBM 8-mer E-score” value was 0.134.

With GTACAGCA, the “PBM 8-mer E-score” value is -0.0583.

ATACACAT: the “PBM 8-mer E-score” value was determined as 0.249.

Take ACAGATAC: the “PBM 8-mer E-score” value is 0.102.

On to CTAGGTAC, for which the “PBM 8-mer E-score” value is -0.018.

In the case of ACCGAGCT, the “PBM 8-mer E-score” value was -0.227.

In the case of GGATGCCC, the “PBM 8-mer E-score” value is -0.254.

On to CATATACA, for which the “PBM 8-mer E-score” value stood at 0.275.

Turning to ATATTCCA, the “PBM 8-mer E-score” value came to 0.329.

Regarding ATGGTCAA, the “PBM 8-mer E-score” value was found to be 0.0074.

Regarding CGCAGACA, the “PBM 8-mer E-score” value was -0.0204.

For the sequence CATAGTGA, the “PBM 8-mer E-score” value is -0.0399.

As for CATCCCAG, the “PBM 8-mer E-score” value is -0.201.

As for ATGACGGC, the “PBM 8-mer E-score” value is -0.0668.

On to CGAGGAAA, for which the “PBM 8-mer E-score” value was -0.0976.

For the sequence CTATTTTC, the “PBM 8-mer E-score” value came to 0.0441.

Turning to CTGCACCC, the “PBM 8-mer E-score” value was -0.178.

In the case of GCGCTGAC, the “PBM 8-mer E-score” value was -0.126.

Turning to CTTTACAC, the “PBM 8-mer E-score” value is 0.152.

Turning to GCTGGCCC, the “PBM 8-mer E-score” value was -0.255.

For AGATATGC, the “PBM 8-mer E-score” value turned out to be 0.0519.

In the case of AAGCGTCC, the “PBM 8-mer E-score” value is -0.286.

As for CAGCAGAG, the “PBM 8-mer E-score” value is -0.175.

As to ACTTGTGC, the “PBM 8-mer E-score” value amounted to 0.0655.

Consider CAAAGAGA, for which the “PBM 8-mer E-score” value turned out to be 0.0164.

As for AAGGTACA, the “PBM 8-mer E-score” value worked out at 0.0388.

In the case of AAAAGTCA, the “PBM 8-mer E-score” value amounted to 0.0201.

Take CGCTAAAG: the “PBM 8-mer E-score” value was determined as 0.0562.

Consider AAATCCTC, for which the “PBM 8-mer E-score” value is -0.0318.
